Assay results from article PMC4336329 (PLoS ONE, 2015).
Hit rate of the full screen: of about 310,000 compounds, about 14,000 (4.5%) showed an effect of 50% or more. Effects have a minus sign here. Some of the results follow.

Target: human ether-à-go-go-related gene (hERG) potassium channel (human, UniProt Q12809)
Assay: primary screen, population patch clamp on CHO cells stably expressing hERG
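Further: peak tail current of the secondary pulse compared with the same well before compound.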

human ether-à-go-go-related gene (hERG) potassium channel, sequence (Q12809 whole entry, looked up): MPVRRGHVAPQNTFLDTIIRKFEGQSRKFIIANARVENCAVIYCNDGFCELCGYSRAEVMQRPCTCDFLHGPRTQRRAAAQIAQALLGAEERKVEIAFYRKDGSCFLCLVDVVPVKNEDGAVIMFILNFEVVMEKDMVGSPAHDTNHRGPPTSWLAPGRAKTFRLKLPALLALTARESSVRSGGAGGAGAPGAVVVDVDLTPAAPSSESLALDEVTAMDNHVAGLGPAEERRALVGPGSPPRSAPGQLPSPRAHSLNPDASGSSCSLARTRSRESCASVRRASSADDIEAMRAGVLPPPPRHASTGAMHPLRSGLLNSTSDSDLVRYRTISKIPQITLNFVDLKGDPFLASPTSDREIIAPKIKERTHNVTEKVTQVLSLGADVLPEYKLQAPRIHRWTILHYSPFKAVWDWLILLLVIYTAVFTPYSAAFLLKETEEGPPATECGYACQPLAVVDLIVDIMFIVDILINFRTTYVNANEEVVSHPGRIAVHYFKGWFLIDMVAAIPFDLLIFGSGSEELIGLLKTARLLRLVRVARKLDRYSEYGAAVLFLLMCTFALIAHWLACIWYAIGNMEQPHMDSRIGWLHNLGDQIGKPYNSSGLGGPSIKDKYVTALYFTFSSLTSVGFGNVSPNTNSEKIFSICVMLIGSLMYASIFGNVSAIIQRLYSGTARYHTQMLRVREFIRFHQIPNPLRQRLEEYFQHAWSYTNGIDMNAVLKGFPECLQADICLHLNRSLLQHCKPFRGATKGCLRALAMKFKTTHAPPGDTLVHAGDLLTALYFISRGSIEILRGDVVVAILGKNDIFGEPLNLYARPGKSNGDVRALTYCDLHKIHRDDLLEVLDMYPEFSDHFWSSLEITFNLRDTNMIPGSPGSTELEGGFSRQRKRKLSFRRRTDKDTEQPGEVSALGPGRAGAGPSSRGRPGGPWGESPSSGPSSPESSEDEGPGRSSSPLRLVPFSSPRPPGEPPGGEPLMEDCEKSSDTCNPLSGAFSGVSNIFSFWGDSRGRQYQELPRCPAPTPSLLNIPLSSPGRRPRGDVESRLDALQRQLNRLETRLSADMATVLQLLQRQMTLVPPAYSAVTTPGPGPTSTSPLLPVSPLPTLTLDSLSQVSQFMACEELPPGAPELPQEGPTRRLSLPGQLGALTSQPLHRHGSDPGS

Row | SMILES | hERG current change (%, negative = inhibition) at 10uM [%]
1 | COC(=O)c1ccccc1NC(=O)Cc1ccccc1OC | -19
2 | O=C(CC1C(=O)NCCN1Cc1ccc(-c2ccccc2)cc1)NCC1CC1 (stereo not shown) | -25.1
3 | Cc1c(C(=O)NCC2CCCO2)oc2ccc(S(=O)(=O)N3CCCC3)cc12 (stereo not shown) | -8.49
4 | Nc1cc(C(=O)O)ccc1Sc1ccccc1C(=O)O | 22.2
5 | CCC(C)c1ccc(NC(=O)C2CC3CCC2C3)cc1 (stereo not shown) | -24.1
6 | CCC1(CC)C(=N)N(C)C(=O)NC1=O | 23.1
7 | O=C(COc1ccc2ccccc2c1)NC1=NCCS1 | 12.1
8 | CCOC(=O)C1(Cc2ccccc2C)CCCN(Cc2cn(C)nc2C)C1 (stereo not shown) | 2.42
9 | O=c1[nH]c(=O)n(C2CCCCCC2)c(O)c1C=NCCCN1CCOCC1 | -0.344
10 | O=C(c1cc2ccccc2oc1=O)N1CCN(C(=O)C2CCCO2)CC1 (stereo not shown) | -4.1
11 | COC(=O)c1sccc1NC(=O)CC1C(=O)NCCN1C(=O)Nc1ccc(F)cc1F (stereo not shown) | 11.8
12 | COc1ccccc1Cn1c(=S)[nH]c2cc(C(=O)NC(C)C)ccc2c1=O | 10.5
13 | CCn1c(CNc2ccc(C(=O)O)cc2)nc2ccccc21 | -18.4
14 | CCn1nnc(NC(=O)c2cccnc2)n1 | 13.5
15 | CC(=O)c1cccc(N(CC(=O)Nc2ccc(S(=O)(=O)N3CCOCC3)cc2)S(C)(=O)=O)c1 | 8.48
16 | O=C(c1cnn2c(C(F)F)cc(C3CC3)nc12)N1CCc2ccccc2C1 | -38.3
17 | N=C1SCC(=O)N1Cc1ccccc1 | 17.2
18 | O=C(CC1Oc2ccccc2NC1=O)NCCCN1CCOCC1 (stereo not shown) | -7.94
19 | O=C(Cc1ccc(-n2cnnn2)cc1)NC12CC3CC(CC(C3)C1)C2 | -36.7
20 | COc1ccc(Nc2cc(C(=O)NCc3ccco3)c3ccccc3n2)c(OC)c1 | 5.29
21 | COc1ccc2cc(C(=O)C3CCCN(C(=O)Cc4c(C)noc4C)C3)ccc2c1 (stereo not shown) | -68.5
22 | O=C(CSc1ccccc1)Nc1ccc(S(=O)(=O)NCC2CCCO2)cc1 (stereo not shown) | 10.4
23 | Cc1ccc(NC(=O)c2sc(N)nc2-c2ccccc2)cc1C | -2.56

Row | SMILES | hERG current change (%, negative = inhibition) at 10uM [%]
24 | C=CCOc1cccc(C2C(C(=O)c3ccc(C)o3)=C(O)C(=O)N2c2nccs2)c1 (stereo not shown) | 7.99
25 | COc1ccc(CNC(=O)c2ccc(Cn3nc(C)cc3C)o2)cc1 | 13.5
26 | CCCCN(C(=O)c1cnc(C)cn1)c1c(N)n(CCC)c(=O)[nH]c1=O | 5.11
27 | O=C(CCc1nnc(Cc2cccc(C(F)(F)F)c2)o1)NC1CC1 | 32.2
28 | COc1ccccc1CNC(=O)CCCNC(=O)Cn1cnc2sc(C)c(C)c2c1=O | 17.3
29 | CCCc1nc2ccccc2c(=O)n1-c1ccc(C(=O)OCC)cc1 | 13.5
30 | O=C(Nc1ccccc1C(=O)N1CCOCC1)c1noc2c1CCCC2 | 0.607
31 | COc1ccccc1CCNC(=O)c1csc2c1CCCC2 | 14
32 | COc1cccc(-n2c(C)n[nH]c2=O)c1 | 14.1
33 | CN1N=C(/C=C/c2ccccc2)CCC1=O | 9.97
34 | Cc1c(C)n(-c2ccc(Cl)cc2)c2ncnc(N)c12 | 0.714
35 | N#Cc1c(-c2ccccc2)cc(-c2ccccc2)nc1SCC(=O)NCC(=O)O | -1.33
36 | Cc1ccsc1S(=O)(=O)N1CCC(CO)(CC2CCCCO2)CC1 (stereo not shown) | 3.2
37 | CCOC(=O)N1CCN(C(=O)C2CCCN(S(=O)(=O)c3ccc(C)cc3)C2)CC1 (stereo not shown) | -24.4
38 | O=C1C(=Cc2ccco2)C(=O)c2ccccc21 | 8.17
39 | Cc1ccsc1/C=N/n1c(-c2ccncc2)n[nH]c1=S | 23.5
40 | Cc1cc(C)n2c(SCC(=O)NC3CCCCC3C)nnc2n1 (stereo not shown) | 29.5
41 | c1ccc(CSc2ccc3nnc(-c4ccccn4)n3n2)cc1 | -69.5
42 | COc1ccc(Cc2nc3ccccc3[nH]c2=O)cc1 | 13.8
43 | COC(=O)COc1ccc(S(=O)(=O)Nc2ccc(NC(C)=O)cc2)cc1 | 19.5
44 | CCC(CC)C(=O)N1CC(=O)Nc2ccc(F)cc2C1c1ccc(F)cc1 (stereo not shown) | -27.8
45 | CCC(=O)c1ccccc1OCCN1C(=O)NC(C)(C)C1=O | 0.954
46 | CCn1c(SCC(=O)Nc2cc(C)ccc2C)nc2c(c1=O)SC(C)C2 (stereo not shown) | -19.9

Row | SMILES | hERG current change (%, negative = inhibition) at 10uM [%]
47 | CC(C)c1ccc(OCC(=O)N2CCN(C)CC2)c(Br)c1 | -15.9
48 | COCCNC(=S)N1CCN(S(C)(=O)=O)CC1 | 29.9
49 | CC(=O)N1c2ccc(S(=O)(=O)NCC3CCC(C(=O)Nc4ccc(C)cn4)CC3)cc2CC1C (stereo not shown) | 9.79
50 | C[C@@H](C(=O)N1CCNCC1)n1cc(CCCN=C(N)N)nn1.Cl | 10.3
51 | CC(O)[C@H]1CNC(=O)C(=O)N1CC1CCCCC1 (stereo partly shown) | 21.7
52 | CCN(c1ccccc1)S(=O)(=O)c1ccc(C(=O)Nc2cccc(C)n2)cc1 | -11.7
53 | O=C(CSc1nc2ccccc2c(=O)n1-c1ccccc1Cl)NC1CCS(=O)(=O)C1 (stereo not shown) | 6.55
54 | CCCOc1ccc(N2CC(C(=O)Nc3ccccn3)CC2=O)cc1 (stereo not shown) | -12.5
55 | COC(=O)C(C(=O)NCC1CCCO1)C1CCCC1 (stereo not shown) | 21.6
56 | COc1ccc(C(CNC(=O)CN2C(=O)NC3(CC(C)CC(C)(C)C3)C2=O)N2CCOCC2)cc1 (stereo not shown) | -0.983
57 | CC(C)N(c1ccccc1)c1ncnc(NCCC(=O)O)c1[N+](=O)[O-] | 6.51
58 | COc1cc(S(=O)(=O)Nc2ccc(C)cc2)ccc1N=Cc1c(C)[nH]n(-c2ccccc2)c1=O | 5.71
59 | CCC(=O)Nc1cnc(NC(=O)c2cccc(F)c2)cc1C | -29.8
60 | O=C1CCC([N+](=O)[O-])C(c2cccc3ccccc23)N1 (stereo not shown) | 12.6
61 | COC(=O)c1ccccc1NC(=O)CCCN1C(=O)C(c2ccccc2)Oc2cccnc21 (stereo not shown) | 27.3
62 | O=C(C[n+]1cc2ccccc2c2ccccc21)c1ccccc1.[Br-] | -73.8
63 | CCCc1ccc(OCC(O)CN2CCN(C(=O)OCC)CC2)cc1.Cl (stereo not shown) | -52.2
64 | CC(=O)N1N=C(C)CC1c1ccc(OCc2ccccc2)cc1 (stereo not shown) | -15.5
65 | Cc1ccc(Cn2cnc3ccccc32)cc1C | -12.1
66 | O=C(Nc1cccc(NC(=O)C2CC3CCCC(C2)C3=O)n1)C1CC2CCCC(C1)C2=O (stereo not shown) | 6.6
67 | Oc1c(C=NCc2ccncc2)sc2ccccc12 | -38.4
68 | Cc1cccc(OCCNC(=O)c2ncn[nH]2)c1 | -23.3
69 | CCCCn1c(N)c(N(CCOC)C(=O)CSc2nnc(-c3ccncc3)n2CCC)c(=O)[nH]c1=O | 6.82

Row | SMILES | hERG current change (%, negative = inhibition) at 10uM [%]
70 | O=C1CCCc2nc(NCc3ccco3)ncc21 | 27.5
71 | NC(=O)Nc1ccc2c(c1)OCCO2 | -3.54
72 | CCOC(=O)c1c(NC(=S)NC(=O)/C=C/c2cccs2)sc(C)c1C | 12.8
73 | COc1ccc(N2CCN(C(c3cccs3)C(C)NC(=O)C(=O)N3CCCCC3)CC2)cc1 (stereo not shown) | -2.74
74 | Cn1nc(C(F)(F)F)c(-c2cccc(C(F)(F)F)c2)c1NC(=O)c1cccnc1 | -6.76
75 | O=C1NC(Cc2ccccc2)c2nc3ccc(Cl)cc3c(=O)n2-c2cc(Cl)ccc21 (stereo not shown) | 16.1
76 | Cc1cc([N+](=O)[O-])c(C(C)(C)C)cc1N | 5.18
77 | COc1ccc(C2=CC(=O)C[C@H](c3ccc(Cl)cc3)C2)cc1 | -1.31
78 | CC1CC(C)CN(C(=O)CCCn2c(=S)[nH]c3ccccc3c2=O)C1 (stereo not shown) | -3.01
79 | CC1(C)C(C=C(Cl)Cl)C1C(=O)OCc1cccc(Oc2ccccc2)c1 (stereo not shown) | 9.71
80 | Cc1ccc(N(C)S(=O)(=O)c2cccc(C(=O)NNC(=O)c3ccncc3)c2)cc1 | -6.47
81 | O=C(CN1C(=O)NC2(CCc3ccccc32)C1=O)c1c[nH]c2ccccc12 (stereo not shown) | 4.53
82 | O=C(COC(=O)c1cccc(Br)c1)NCCc1ccccc1 | 1.78
83 | CCOC(=O)N1CCN(S(=O)(=O)c2ccc3c(c2)CCN3C(=O)CC)CC1 | 1.55
84 | CN1/C(=C\C(=O)c2ccccc2Cl)c2ccccc2CC1(C)C | -17.5
85 | O=C(CSC1CCCCC1)Nc1ccccc1Br | 6.12
86 | CC(CNC(=O)C(C)(C)C)NC(=O)C(C)(C)C (stereo not shown) | -2.59
87 | O=C(C1CCCN1S(=O)(=O)c1cccc2cccnc12)N1CCc2ccccc2C1 (stereo not shown) | -57.5
88 | N#Cc1cc2c(=O)n3ccccc3nc2n(-c2ccc(Cl)cc2)c1=O | 5.19
89 | O=C(NCc1ccccc1)c1ccc(S(=O)(=O)N2CCCc3ccccc32)cc1 | 21.5
90 | CCOCCCNC(=O)CSc1nc2nc(C)c(Cc3ccccc3)c(C)n2n1 | 3
91 | Cc1ccc(NC(=O)CN2C(=O)S/C(=C\c3ccc(C(=O)O)cc3)C2=O)cc1 | 25
